The supplement of paper PMC8728848
Only a selection was taken, and the strongest signals are over-represented in it overall.

Tests used:
Experiment in all cases: glycan array binding signal (z-score within array); higher = stronger binding
Settings in all cases: glycan notation: IUPAC condensed, linker removed
[1] = system: GlcNAc(b1-3)[GlcNAc(b1-4)][GlcNAc(b1-6)]GlcNAc
Outline: (§1)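 Negative Z-scores can be read as non-binding. The Z-score is calculated within each array and then averaged across arrays of one protein sequence at different concentrations or buffers and across linkers. Arrays, 3228 in all, were curated from the Consortium for Functional Glycomics database and kept only where the protein sequence was available.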

[2] = system: GlcNAc(b1-3)[GlcNAc(b1-6)]GlcNAc
Outline: as §1

[3] = system: GlcNAc(b1-3)Gal(b1-4)GlcNAc(b1-3)Gal(b1-4)GlcNAc
Outline: as §1

[4] = system: GlcNAc(b1-3)[GlcNAc(b1-6)]Gal(b1-4)GlcNAc
Outline: as §1

[5] = system: GlcNAc(b1-4)Gal(b1-4)GlcNAc
Outline: as §1

[6] = system: GlcNAc(b1-3)Gal
Outline: as §1

[7] = system: GlcNAc(b1-4)GlcNAc(b1-4)GlcNAc(b1-4)GlcNAc(b1-4)GlcNAc(b1-4)GlcNAc
Outline: as §1

[8] = system: GlcNAc(b1-4)GlcNAc(b1-4)GlcNAc
Outline: as §1

[9] = system: GlcNAc(b1-3)Gal(b1-4)GlcNAc(b1-3)Gal(b1-4)GlcNAc(b1-3)Gal(b1-4)GlcNAc(b1-3)Gal(b1-4)GlcNAc(b1-2)Man(a1-3)[GlcNAc(b1-3)Gal(b1-4)GlcNAc(b1-3)Gal(b1-4)GlcNAc(b1-3)Gal(b1-4)GlcNAc(b1-3)Gal(b1-4)GlcNAc(b1-2)Man(a1-6)]Man(b1-4)GlcNAc(b1-4)GlcNAc
Outline: as §1

[10] = system: GlcNAc(b1-3)[GlcNAc(b1-6)]GalNAc
Outline: as §1

[11] = system: GlcNAc(b1-6)Gal(b1-4)GlcNAc
Outline: as §1

[12] = system: GlcNAc(b1-3)[GlcNAc(b1-6)]GlcNAc(b1-4)GlcNAc
Outline: as §1

[13] = system: GlcNAc(b1-4)GlcNAc
Outline: as §1

[14] = system: GlcNAc(b1-3)Gal(b1-4)GlcNAc(b1-3)Gal(b1-4)GlcNAc(b1-3)Gal(b1-4)GlcNAc(b1-3)Gal(b1-4)GlcNAc(b1-2)Man(a1-3)[GlcNAc(b1-3)Gal(b1-4)GlcNAc(b1-3)Gal(b1-4)GlcNAc(b1-3)Gal(b1-4)GlcNAc(b1-3)Gal(b1-4)GlcNAc(b1-2)Man(a1-6)]Man(b1-4)GlcNAc(b1-4)[Fuc(a1-6)]GlcNAc
Outline: as §1

[15] = system: GlcNAc(b1-3)Gal(b1-4)GlcNAc(b1-3)Gal(b1-4)GlcNAc(b1-3)Gal(b1-4)GlcNAc(b1-3)Gal(b1-4)GlcNAc(b1-2)[GlcNAc(b1-3)Gal(b1-4)GlcNAc(b1-3)Gal(b1-4)GlcNAc(b1-3)Gal(b1-4)GlcNAc(b1-3)Gal(b1-4)GlcNAc(b1-6)]Man(a1-6)[GlcNAc(b1-3)Gal(b1-4)GlcNAc(b1-3)Gal(b1-4)GlcNAc(b1-3)Gal(b1-4)GlcNAc(b1-3)Gal(b1-4)GlcNAc(b1-2)Man(a1-3)]Man(b1-4)GlcNAc(b1-4)[Fuc(a1-6)]GlcNAc
Outline: as §1

[16] = system: GlcNAc(b1-6)GalNAc
Outline: as §1

[17] = system: GlcNAc(b1-3)Gal(b1-4)GlcNAc
Outline: as §1

[18] = system: GlcNAc(b1-3)GalNAc
Outline: as §1

[19] = system: GlcNAc(b1-4)GlcNAc(b1-4)GlcNAc(b1-4)GlcNAc(b1-4)GlcNAc
Outline: as §1

[20] = system: GlcNAc(b1-3)Gal(b1-4)Glc
Outline: as §1

STIM-3 (Mus musculus) (chain not printed)
glycan array binding signal (z-score) [1]: 2.32 | glycan array binding signal (z-score) [2]: -0.861

Gal 8-short (Homo sapiens) (chain not printed)
glycan array binding signal (z-score) [3]: 1.59 | glycan array binding signal (z-score) [4]: -0.822 | glycan array binding signal (z-score) [5]: -0.792

NCAM1 (Homo sapiens) (chain not printed)
glycan array binding signal (z-score) [6]: 0.04

M-Ficolin Y271F (Homo sapiens) (chain not printed)
glycan array binding signal (z-score) [7]: -0.619

FGF2 (chain not printed)
glycan array binding signal (z-score) [4]: -0.167

Collectin K1 (Homo sapiens) (chain not printed)
glycan array binding signal (z-score) [8]: -0.218

M-Ficolin G221F A256V (Homo sapiens) (chain not printed)
glycan array binding signal (z-score) [6]: -0.317

Meso764 (Homo sapiens) (chain not printed)
glycan array binding signal (z-score) [9]: -0.011 | glycan array binding signal (z-score) [3]: -0.273 | glycan array binding signal (z-score) [1]: 0.168 | glycan array binding signal (z-score) [10]: -0.549

L-Ficolin (Homo sapiens) (chain not printed)
glycan array binding signal (z-score) [11]: 3.31

CLEC-2 (Homo sapiens) (chain not printed)
glycan array binding signal (z-score) [12]: -0.444 | glycan array binding signal (z-score) [13]: -0.093

MBP (Homo sapiens) (chain not printed)
glycan array binding signal (z-score) [9]: 8.18 | glycan array binding signal (z-score) [14]: 9.18 | glycan array binding signal (z-score) [15]: 6.24 | glycan array binding signal (z-score) [1]: 3.71 | glycan array binding signal (z-score) [16]: 0.119

Serum Amyloid P component (Homo sapiens) (chain not printed)
glycan array binding signal (z-score) [17]: -0.34 | glycan array binding signal (z-score) [18]: 0.193 | glycan array binding signal (z-score) [1]: -0.323 | glycan array binding signal (z-score) [19]: -0.303 | glycan array binding signal (z-score) [8]: 0.984

Siglec-2 (Homo sapiens) (chain not printed)
glycan array binding signal (z-score) [17]: -0.097 | glycan array binding signal (z-score) [20]: 0.1 | glycan array binding signal (z-score) [18]: -0.206

Gal 8 long (Homo sapiens) (chain not printed)
glycan array binding signal (z-score) [18]: -0.294

M-Ficolin G221F (Homo sapiens) (chain not printed)
glycan array binding signal (z-score) [16]: -0.17
